Data as given in PubChem BioAssay (NCATS).
This list was built around the results that the source calls inconclusive (neither active nor inactive); the mix of calls is not that of the screen. For some assays here: Potencies of inconclusive entries are doubtful fits and often do not repeat. For some assays here: “Side channel” marks fits to a control or component signal instead of the main read-out. Active and inactive are the calls of the source. Unless noted, the call rests on the fitted dose curve; in most records, active means well fitted curve in the direction sought with a large enough effect; inconclusive means small, poorly fitted or top-dose-only effect, or another doubt; inactive means no such curve, though single readings can be large; an effect the other way counts as inactive or inconclusive.

Tests used:
[1] = biological target: Estrogen receptor (Homo sapiens) (UniProt P03372); test: qHTS assay for small molecule agonists of estrogen receptor alpha signaling (AID 588514; calls by dose curve; further: nearly all actives have a fitted effect of over 70% in size; further: potency means the concentration at half of the fitted maximal effect;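 on activation: 0% = vehicle only and 100% = reference agonist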); conditions: ER-alpha-UAS-bla HEK293, beta-lactamase ratio, 18 h; activation: at 76.8 µM (top of the series), percent of full estradiol response, vehicle zero
Method in brief: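 Fluorescence from CCF4 cleavage reports ER-alpha-driven beta-lactamase expression in HEK 293 cells treated 18 hrs at 37 C. Data normalized to 17-beta-estradiol (20 nM) and DMSO, fitted to Hill equation.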

[2] = biological target: Glucocorticoid receptor (Homo sapiens) (UniProt P04150); test: qHTS assay for small molecule agonists of glucocorticoid receptor signaling (AID 588532; active means well fitted curve in the direction sought with a large enough effect in the signal ratio, with a control signal flat; inconclusive means small, poorly fitted or top-dose-only effect, or a change in a side signal; inactive means no such curve, though single readings can be large or run the other way; the % refers to the signal ratio; further: potency means the concentration at half of the fitted maximal effect;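 on activation: 100% = dexamethasone at 0.1 µM and 0% = DMSO only wells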); conditions: HeLa MMTV-bla, beta-lactamase ratio, agonist, 18 h; activation: hits give high values, percent of dexamethasone control, DMSO zero
Method in brief: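 Quantitative HTS using CellSensor MMTV-bla HeLa cells in charcoal/dextran-treated serum; compounds tested up to 92 uM. After 18 h at 37 C, CCF4 dye reported reporter induction.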

[3] = biological target: Peroxisome proliferator-activated receptor delta (Homo sapiens) (UniProt Q03181); test: qHTS assay for small molecule antagonists of peroxisome proliferator-activated receptor delta signaling (AID 588535; active means well fitted inhibition curve with a large enough effect in the signal ratio, with a control signal flat, not every such curve was filed as active; inconclusive means small, poorly fitted or top-dose-only effect, or effect the other way, or a change in a side signal; inactive means no such curve, though single readings can be large or run the other way; the % refers to the signal ratio); conditions: HEK293T PPARd-UAS-bla, beta-lactamase FRET ratio, 18 h; activity change, negative = inhibition: at 76.7 µM (top of the series) unless noted
Method in brief: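 Antagonist-mode qHTS using GeneBLAzer PPAR-delta-UAS-bla HEK293T cells; compound exposure 18 hrs at 37 C over a titration. Ratiometric CCF4 fluorescence at 460/530 nm; concentration-response points fitted to the Hill equation.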

[4] = biological target: Peroxisome proliferator-activated receptor gamma (Homo sapiens) (UniProt P37231); test: qHTS assay for small molecule antagonists of peroxisome proliferator-activated receptor gamma signaling (AID 588537; active means well fitted inhibition curve with a large enough effect in the signal ratio, with a control signal flat, not every such curve was filed as active; inconclusive means small, poorly fitted or top-dose-only effect, or effect the other way, or a change in a side signal; the % refers to the signal ratio; further: potency means the concentration at half of the fitted maximal effect;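 further: reporter cells co-stimulated with 50 nM rosiglitazone agonist during compound treatment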; on activity, negative = inhibition: % of control where 0% means no effect); conditions: HEK293 PPARg-UAS-bla, beta-lactamase ratio, antagonist mode; activity, negative = inhibition: at 76.8 µM (top of the series)
Method in brief: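 Cell-based beta-lactamase assay; GW9662 served as the antagonist control. Stimulation used rosiglitazone, final 50 nM, 16 h, 37 C.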

[5] = biological target: Retinoic acid receptor RXR-alpha (Homo sapiens) (UniProt P19793); test: qHTS assay for small molecule antagonists of retinoid X receptor alpha signaling (AID 588546; active means well fitted inhibition curve with a large enough effect in the signal ratio, with a control signal flat, not every such curve was filed as active; inconclusive means small, poorly fitted or top-dose-only effect, or effect the other way, or a change in a side signal; inactive means no such curve, though single readings can be large or run the other way; the % refers to the signal ratio;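 further: cells stimulated with 9-cis-retinoic acid as agonist; on the % scale 0 is the no-effect control and ±100 the full control effect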); conditions: HEK293T RXRa-UAS-bla, beta-lactamase ratio, antagonist mode
Method in brief: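 Beta-lactamase reporter inhibition, read as CCF4 fluorescence ratio (ex 405, em 460/530 nm) after 2 h at RT. HEK293T UAS-bla cells, 2500/well, were stimulated with 9-cis-RA at 500 or 100 nM final alongside test compound for 18 h at 37 C.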

[6] = qHTS assay to identify small molecules that stimulate interleukin-8 (IL-8) secretion (AID 651758; active means well fitted activation curve with a large enough effect in the signal ratio; inconclusive means small, poorly fitted or top-dose-only effect, or effect the other way, or a change in a side signal; the % refers to the signal ratio; further: 0% is about no effect); conditions: HTRF ratio (665/615); activation: at 92.2 µM (top of the series)
Method in brief: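 Secreted IL-8 measured homogeneously by TR-FRET (two labelled anti-IL-8 antibodies, 1-3 h at room temperature) after a 16 h, 37 C compound treatment of THP-1 cells at 2000 cells/well.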

[7] = biological target: Thyroid hormone receptor beta (Homo sapiens) (UniProt P10828); test: qHTS assay for small molecule antagonists of thyroid hormone receptor beta signaling (AID 588547; active means well fitted inhibition curve with a large enough effect in the signal ratio, with a control signal flat, not every such curve was filed as active; inconclusive means small, poorly fitted or top-dose-only effect, or effect the other way, or a change in a side signal; the % refers to the signal ratio; further: potency means the concentration at half of the fitted maximal effect); conditions: TR-UAS-bla HEK293, beta-lactamase ratio, antagonist mode, 18 h
Method in brief: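 Inhibition of T3-driven (0.4nM final) beta-lactamase reporter activity was measured over 0.59 nM to 92 uM compound after 18 h at 37 C. The cells were GripTite HEK293 TR-UAS-bla in charcoal/dextran-stripped serum, with CCF4 ratio read-out and IC50 from Hill fits.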

[8] = qHTS assay for small molecule agonists of the antioxidant response element (ARE) signaling pathway (AID 651741; active means well fitted activation curve with a large enough effect in the signal ratio; inconclusive means small, poorly fitted or top-dose-only effect, or effect the other way, or a change in a side signal; the % refers to the signal ratio; further: % of control where 0% means no effect); conditions: HepG2 ARE-bla reporter, beta-lactamase FRET ratio, 16 h; activation: at 96 µM (top of the series) unless noted
Method in brief: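 Agonist activity is measured as ARE-driven beta-lactamase expression in a stable HepG2 reporter line, using 16 h compound treatment at 37 C and a FRET substrate fluorescence readout after 2 h.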

[9] = Cell Viability - LYMP2-001 (AID 921); conditions: LYMP2-001 lymphoblastoid cell viability; activity change, negative = cytotoxic: at 92.2 µM (top of the series); further: nearly all actives have a fitted effect of over 70% in size; further: potency means the concentration at half of the fitted maximal effect;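 on activity change, negative = cytotoxic: 0% = DMSO only and full inhibition = tetraoctylammonium bromide control wells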
Method in brief: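 Human lymphoblastoid cells (Coriell), 2500 per well, were preincubated 5 hr at 37 C, then exposed to compounds in complete medium for 24 hr at 37 C. Cellular ATP was read by CellTiter-Glo luminescence; AC50 from Hill fits of concentration-response data.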

[10] = biological target: Bile acid receptor (Homo sapiens) (UniProt Q96RI1); test: qHTS assay for small molecule agonists of farnesoid X receptor signaling (AID 588527; calls by dose curve; further: potency means the concentration at half of the fitted maximal effect); conditions: HEK293T FXR-UAS-bla, beta-lactamase ratio, 16 h; activation: hits give high values
Method in brief: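 FXR-UAS-bla HEK293T, 10% dialyzed FBS; cpds up to 92 uM titration, 16 h 37 C; CCF4 dye 2 h RT; fluorescence. Normalized to chenodeoxycholic acid 100 uM (100%) and DMSO (0%); Hill fit gives EC50, efficacy.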

[11] = Cell Viability - LYMP2-009 (AID 968); further: potency means the concentration at half of the fitted maximal effect; nearly all actives have a fitted effect of over 55% in size
[12] = Cell Viability - LYMP2-019 (AID 973); further: potency means the concentration at half of the fitted maximal effect; nearly all actives have a fitted effect of over 55% in size
Method in brief: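 AC50 values come from Hill-equation modelling of qHTS concentration-response curves, where viability is measured as luciferase-based ATP luminescence in the lymphoblastoid line after 24 hr compound exposure in complete culture medium.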

[13] = Cell Viability - LYMP2-021 (AID 974);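 further: potency means the concentration at half of the fitted maximal effect; compound exposure lasts 24 hours at 37 °C; nearly all actives have a fitted effect of over 55% in size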
Method in brief: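 In qHTS format, compounds are tested against 2500 lymphoblastoid cells per well for 24 h; viable cell number is inferred from ATP-driven luciferase light, and Hill-equation fitting yields AC50 values.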

[14] = Cell Viability - LYMP2-007 (AID 979); conditions: LYMP2-007 lymphoblastoid cell viability; activity change, negative = cytotoxicity: at 92.2 µM (top of the series);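 further: cells exposed to compound for 24 h before reading; 0% = DMSO only and the negative end = 92 µM tetraoctylammonium bromide; nearly all actives have a fitted effect of over 60% in size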
Method in brief: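 Measured via luciferase-based ATP quantitation: lymphoblastoid cells, 24 hr compound exposure at 37 C, AC50 from Hill fits.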

[15] = Cell Viability - LYMP2-010 (AID 981); further: potency means the concentration at half of the fitted maximal effect; nearly all actives have a fitted effect of over 55% in size
Method in brief: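 This 24 hr viability screen uses LYMP2-010 lymphoblastoid cells, quantifies ATP via luciferase luminescence, and derives AC50 from Hill fits of qHTS concentration-response data.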

[16] = Cell Viability - LYMP2-012 (AID 982); conditions: LYMP2-012 lymphoblastoid cell viability qHTS; activity change, negative = cytotoxicity: at 92.2 µM (top of the series); further: potency means the concentration at half of the fitted maximal effect;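 on activity change, negative = cytotoxicity: 0% = DMSO only and full loss = 92 µM tetraoctylammonium bromide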
[17] = Cell Viability - LYMP2-014 (AID 983); further: potency means the concentration at half of the fitted maximal effect; nearly all actives have a fitted effect of over 50% in size
Method in brief: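 Quantitative HTS in lymphoblastoid cells: 24 hr compound exposure, then CellTiter-Glo ATP luminescence. Positive control was tetraoctylammonium bromide, 6.4pM to 92 uM.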

[18] = Cell Viability - LYMP2-016 (AID 984)
Method in brief: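 Human lymphoblastoid cells (LYMP2-016), 2500/well in complete medium, preincubated 5 hr at 37 C, then compound-treated 24 hr at 37 C. Intracellular ATP read by CellTiter-Glo luminescence after 30 min at room temperature; AC50 from Hill-equation concentration-response fits.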

[19] = Cell Viability - LYMP2-020 (AID 986); conditions: activity change, negative = viability loss: at 92.2 µM (top of the series)
Method in brief: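 Cells at 2500 per well receive a 24 hr compound exposure at 37 C. Viability is measured as ATP-dependent luciferase luminescence, with AC50 modeled from qHTS concentration-response curves.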

[20] = biological target: Retinoic acid receptor RXR-alpha (Homo sapiens) (UniProt P19793); test: qHTS assay for small molecule agonists of retinoid X receptor alpha signaling (AID 588544; calls by dose curve;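 further: 0% = DMSO basal wells and 100% = reference agonist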); conditions: HEK293T RXRa-UAS-bla, beta-lactamase reporter, 18 h; activation: at 76.7 µM (top of the series) unless noted
[21] = MultiTox-Fluor Cytotoxicity Assay - LYMP1-002 - Dead Cells (AID 960); conditions: LYMP1-002 lymphoblastoid cells, dead-cell protease fluorescence; cytotoxicity (dead cells): at 46.1 µM (top of the series);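 further: 0% = DMSO and 100% = tetraoctylammonium bromide; nearly all actives have a fitted effect of over 60% in size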
Method in brief: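 Concentration-dependent increases in membrane-leaked protease activity are quantified in LYMP1-002 cells after 16 hr treatment; values are normalized against DMSO and tetraoctylammonium bromide (15 uM) controls and AC50 derived by Hill modeling.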

[22] = biological target: Bile acid receptor (Homo sapiens) (UniProt Q96RI1); test: qHTS assay for small molecule antagonists of farnesoid X receptor signaling (AID 588526; calls by dose curve; further: on the % scale 0 is the no-effect control and ±100 the full control effect); conditions: HEK293T FXR-UAS-bla, beta-lactamase ratio, antagonist mode; activity change, negative = inhibition: at 76.7 µM (top of the series)
Method in brief: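 Beta-lactamase reporter antagonist mode: HEK293T FXR-UAS-bla cells, titrated compound, CDCA stimulation, 16 h 37 C, CCF4 dye 2 h RT. Data normalized to CDCA 50 uM and DMSO; Hill-fit IC50.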

[23] = biological target: Tumor necrosis factor (Homo sapiens) (UniProt P01375); test: qHTS assay to identify small molecules that stimulate Tumor Necrosis Factor-alpha (TNF-alpha) secretion (AID 651757; active means well fitted curve in the direction sought with a large enough effect in the signal ratio; inconclusive means small, poorly fitted or top-dose-only effect, or a change in a side signal; inactive means no such curve, though single readings can be large or run the other way; the % refers to the signal ratio; further: 0% is about no effect); conditions: Human cells, HTRF 665/615 ratio; activation (TNF-alpha secretion): at 92.2 µM (top of the series)
Method in brief: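 Using 3000 THP-1 cells per well, compounds and controls were applied for 17 hrs at 37 C. Detection followed with two labeled anti-TNF-alpha antibodies (cryptate donor, XL665 acceptor) for 3 hr at room temperature, measured by TR-FRET.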

[24] = qHTS assay for small molecule antagonists of the retinoid-related orphan receptor gamma (ROR-gamma) signaling pathway - cell viability counter screen (AID 720652; active means well fitted curve in the direction sought with a large enough effect in the repeat runs; inconclusive means weak or mixed curves; inactive means no such curve, though single readings can be large; an effect the other way counts as inactive or inconclusive;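 further: CHO reporter cells with doxycycline-induced ROR-gamma expression; compound exposure lasted 16 hr before ATP read; on the % scale 0 is the no-effect control and ±100 the full control effect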)
Method in brief: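 ATP-based viability readout in the ROR-gamma reporter CHO cells after 16 hr compound exposure under doxycycline induction.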
Tags describe the fitted curve by direction and shape or compound fluorescence and quenching.

Sequence of UniProt P03372 (P03372 whole entry, looked up): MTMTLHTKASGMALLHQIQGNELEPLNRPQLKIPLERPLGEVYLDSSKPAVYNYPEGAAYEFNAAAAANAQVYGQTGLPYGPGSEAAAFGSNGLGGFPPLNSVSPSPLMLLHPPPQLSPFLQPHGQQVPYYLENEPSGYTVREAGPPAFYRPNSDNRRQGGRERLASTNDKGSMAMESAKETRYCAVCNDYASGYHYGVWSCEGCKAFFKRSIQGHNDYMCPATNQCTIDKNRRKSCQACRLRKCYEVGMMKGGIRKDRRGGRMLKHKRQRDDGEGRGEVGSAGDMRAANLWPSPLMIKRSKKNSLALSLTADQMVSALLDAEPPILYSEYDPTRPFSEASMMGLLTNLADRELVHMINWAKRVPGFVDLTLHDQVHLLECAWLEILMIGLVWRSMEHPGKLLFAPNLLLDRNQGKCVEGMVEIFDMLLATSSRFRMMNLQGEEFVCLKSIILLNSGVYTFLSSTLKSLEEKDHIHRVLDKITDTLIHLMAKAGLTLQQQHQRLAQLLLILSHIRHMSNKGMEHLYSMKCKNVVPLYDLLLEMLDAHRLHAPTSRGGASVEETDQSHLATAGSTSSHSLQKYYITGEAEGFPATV
Sequence of UniProt P19793 (P19793 whole entry, looked up): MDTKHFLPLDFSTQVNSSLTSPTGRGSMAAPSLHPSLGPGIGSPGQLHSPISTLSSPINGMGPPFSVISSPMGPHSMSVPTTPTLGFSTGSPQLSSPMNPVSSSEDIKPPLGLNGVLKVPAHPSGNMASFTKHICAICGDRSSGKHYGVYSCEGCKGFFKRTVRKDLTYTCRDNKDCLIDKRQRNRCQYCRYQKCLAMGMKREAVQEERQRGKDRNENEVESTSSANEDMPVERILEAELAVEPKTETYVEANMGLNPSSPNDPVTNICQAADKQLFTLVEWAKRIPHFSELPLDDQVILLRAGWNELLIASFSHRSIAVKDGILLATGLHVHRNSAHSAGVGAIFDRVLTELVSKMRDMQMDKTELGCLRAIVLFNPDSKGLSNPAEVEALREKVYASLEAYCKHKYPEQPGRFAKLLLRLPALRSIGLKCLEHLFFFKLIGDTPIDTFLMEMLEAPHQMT
Sequence of UniProt Q03181 (Q03181 whole entry, looked up): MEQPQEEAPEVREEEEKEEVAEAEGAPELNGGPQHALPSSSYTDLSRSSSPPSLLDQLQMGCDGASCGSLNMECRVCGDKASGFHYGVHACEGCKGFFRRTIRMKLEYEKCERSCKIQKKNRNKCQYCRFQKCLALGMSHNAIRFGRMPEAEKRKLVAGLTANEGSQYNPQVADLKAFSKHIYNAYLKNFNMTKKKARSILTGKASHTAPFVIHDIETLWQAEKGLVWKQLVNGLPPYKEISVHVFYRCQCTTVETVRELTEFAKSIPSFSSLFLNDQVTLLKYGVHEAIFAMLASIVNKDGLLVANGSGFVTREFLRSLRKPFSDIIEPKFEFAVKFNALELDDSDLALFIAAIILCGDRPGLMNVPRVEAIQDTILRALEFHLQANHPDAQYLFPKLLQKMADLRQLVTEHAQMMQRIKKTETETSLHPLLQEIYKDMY
Sequence of UniProt P10828 (P10828 whole entry, looked up): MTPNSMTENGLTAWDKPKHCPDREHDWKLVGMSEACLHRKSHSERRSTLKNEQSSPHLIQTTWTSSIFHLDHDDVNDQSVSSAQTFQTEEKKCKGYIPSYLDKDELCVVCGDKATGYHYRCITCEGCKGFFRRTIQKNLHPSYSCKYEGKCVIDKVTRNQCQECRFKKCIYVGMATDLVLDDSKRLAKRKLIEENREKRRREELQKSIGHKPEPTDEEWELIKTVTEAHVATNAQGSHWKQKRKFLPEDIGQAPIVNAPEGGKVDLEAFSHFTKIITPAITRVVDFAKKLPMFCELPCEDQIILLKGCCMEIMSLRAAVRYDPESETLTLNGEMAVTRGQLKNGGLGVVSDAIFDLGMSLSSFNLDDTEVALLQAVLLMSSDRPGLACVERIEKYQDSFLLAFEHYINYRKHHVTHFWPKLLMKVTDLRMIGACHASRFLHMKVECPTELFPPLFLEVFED
Sequence of UniProt P01375 (P01375 whole entry, looked up): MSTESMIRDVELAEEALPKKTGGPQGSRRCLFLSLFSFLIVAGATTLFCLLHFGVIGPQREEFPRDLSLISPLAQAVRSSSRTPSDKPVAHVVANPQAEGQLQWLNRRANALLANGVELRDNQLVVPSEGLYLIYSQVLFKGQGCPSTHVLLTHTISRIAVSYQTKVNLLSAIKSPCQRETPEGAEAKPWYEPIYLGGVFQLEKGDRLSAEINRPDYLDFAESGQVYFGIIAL

COc1c(C(C)(C)C)cc([N+](=O)[O-])c(C)c1[N+](=O)[O-]
inactive: activation [2] -4.08% | Potency [4] | max response [5] -14.3% | Potency [6]
active: Potency [1] 7.08 µM
inconclusive: activity change, negative = inhibition [3] 18.2%

CCC/C(=N\OCC)C1=C(O)CC(CC(C)SCC)CC1=O (stereo unspecified)
inactive: Potency [3] | Potency [4] | max response [5] -23% | Potency [8]
inconclusive: activation [1] 3.48% | Potency [7] 2.5 nM [cytotoxic, side channel, full curve, poor fit]

ClC(Br)Br
inactive: Potency [9] | Potency [1] | Potency [4] | Potency [6]
inconclusive: Potency [10] 3.2 nM [side channel, falling, full curve, poor fit] | Potency [2] 501 nM [side channel, falling, full curve, poor fit] | activation [8] 12.9%

ClCBr
inconclusive: Potency [9] 79.4 µM [cytotoxic, single point] | Potency [11] 79.4 µM [cytotoxic, single point] | Potency [12] 79.4 µM [cytotoxic, single point] | Potency [13] 79.4 µM [cytotoxic, single point] | activity change, negative = cytotoxicity [14] -39.6% [cytotoxic] | Potency [15] 79.4 µM [cytotoxic, single point] | Potency [16] 79.4 µM [cytotoxic, single point] | Potency [17] 79.4 µM [cytotoxic, single point] | Potency [18] 79.4 µM [cytotoxic, single point] | Potency [19] 79.4 µM [cytotoxic, single point] | activation [8] 6.23%
inactive: Potency [1] | Potency [20] | Potency [6]

N#CCCC#N
inconclusive: activity change, negative = inhibition [22] -9.19% | Potency [4] 50.1 µM [activator, single point] | activation [6] -7.41%
inactive: Potency [21] | Potency [16] | Potency [1] | Potency [23] | Potency [24]
